Test results reported in the supplement of paper PMC11880418.
Where a name gives a salt, the structure may show the parent alone. Some of the results follow. The data scatter; read single values as rough.

tested on: PANC1; assay: ALDHbr (CSC) cell proportion score relative to DMSO vehicle (ratio to DMSO); breast (SUM159) / gastric (MKN45) / pancreatic (PANC1) / colon cancer lines; ALDHbr cells have high ALDH activity and are rich in cancer stem cells (CSC); higher = more CSC (ALDHbr) cells remaining; conditions: 10 µM; 72 h
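Further: High-content imaging of ALDEFLUOR-stained cells with Hoechst-labelled nuclei in 384-well plates, triplicate wells, scored as Z-score against 0.1% DMSO vehicle, negative meaning fewer ALDHbr cells.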

Row | SMILES | ALDHbr
1 | CC[C@H]1OC(=O)[C@H](C)[C@@H](O[C@H]2C[C@@](C)(OC)[C@@H](O)[C@H](C)O2)[C@H](C)[C@@H](O[C@@H]2O[C@H](C)C[C@H](N(C)C)[C@H]2O)[C@](C)(OC)C[C@@H](C)C(=O)[C@H](C)[C@@H](O)[C@]1(C)O [Clarithromycin] | 0.981
2 | C#C[C@]1(O)CC[C@H]2[C@@H]3CCC4=Cc5oncc5C[C@]4(C)[C@H]3CC[C@@]21C [Danazol] | 0.871
3 | CCOC(=O)[C@H](CCc1ccccc1)N[C@@H](C)C(=O)N1[C@H](C(=O)O)C[C@@H]2CCC[C@@H]21 [Ramipril] | 0.922
4 | CCCCC(CC)CN1CN(CC(CC)CCCC)CC(C)(N)C1 (centres undefined) [Hexetidine] | 1.53
5 | CCC(=O)O[C@]1(C(=O)CCl)[C@@H](C)C[C@H]2[C@@H]3CCC4=CC(=O)C=C[C@]4(C)[C@@]3(F)[C@@H](O)C[C@@]21C [Clobetasol propionate] | 0.669
6 | CC(=O)O[C@H]1C[C@@]2(C)[C@@H](C[C@@H](O)[C@H]3[C@@]4(C)CC[C@@H](O)[C@@H](C)[C@@H]4CC[C@@]32C)/C1=C(\CCC=C(C)C)C(=O)O [Fusidic acid sodium salt] | 0.472
7 | CNC[C@H](O)[C@@H](O)[C@H](O)[C@H](O)CO [Meglumine] | 1.11
8 | CCN(CC)CCNC(C(=O)OCCC(C)C)c1ccccc1 (centres undefined) [Camylofine chlorhydrate] | 0.961
9 | O=C1[C@H]2CCCC[C@H]2C(=O)N1CCCCN1CCN(c2nsc3ccccc23)CC1 [Perospirone] | 0.672
